Assay results published in PubChem BioAssay AID1645882 (National Center for Advancing Translational Sciences (NCATS), 2021).
Hit rate of the full screen: of about 16,000 compounds, about 120 (0.75%) were called active. About 4% were inconclusive and are not listed. The call rests on the fitted dose curve; in most records, active means well fitted inhibition curve with a large enough effect; inconclusive means small, poorly fitted or top-dose-only effect; inactive means no such curve, though single readings can be large or run the other way. The list shows a part of the results.

molecular target: Rap guanine nucleotide exchange factor 3 (Homo sapiens) (UniProt O95398); experiment: Validation qHTS for antagonist of cAMP-regulated guanine nucleotide exchange factor 3 (EPAC1); conditions: EPAC1 Rap1B-BODIPY-GDP exchange, fluorescence; series mostly up to 150 µM; activity change, negative = inhibition: at the top concentration; further: nearly all actives have a fitted effect of over 75% in size
In short: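 EPAC1 (100 nM) mixed with 250 nM RAP1B-BODIPY-GDP and 50 uM GDP; compounds in concentration series, 5 min at room temperature. Fluorescence (ex 480/em 540 nm) read every 5 min for 30 min; normalized to ATA control and DMSO.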

Chain of UniProt O95398 (O95398 whole entry, looked up): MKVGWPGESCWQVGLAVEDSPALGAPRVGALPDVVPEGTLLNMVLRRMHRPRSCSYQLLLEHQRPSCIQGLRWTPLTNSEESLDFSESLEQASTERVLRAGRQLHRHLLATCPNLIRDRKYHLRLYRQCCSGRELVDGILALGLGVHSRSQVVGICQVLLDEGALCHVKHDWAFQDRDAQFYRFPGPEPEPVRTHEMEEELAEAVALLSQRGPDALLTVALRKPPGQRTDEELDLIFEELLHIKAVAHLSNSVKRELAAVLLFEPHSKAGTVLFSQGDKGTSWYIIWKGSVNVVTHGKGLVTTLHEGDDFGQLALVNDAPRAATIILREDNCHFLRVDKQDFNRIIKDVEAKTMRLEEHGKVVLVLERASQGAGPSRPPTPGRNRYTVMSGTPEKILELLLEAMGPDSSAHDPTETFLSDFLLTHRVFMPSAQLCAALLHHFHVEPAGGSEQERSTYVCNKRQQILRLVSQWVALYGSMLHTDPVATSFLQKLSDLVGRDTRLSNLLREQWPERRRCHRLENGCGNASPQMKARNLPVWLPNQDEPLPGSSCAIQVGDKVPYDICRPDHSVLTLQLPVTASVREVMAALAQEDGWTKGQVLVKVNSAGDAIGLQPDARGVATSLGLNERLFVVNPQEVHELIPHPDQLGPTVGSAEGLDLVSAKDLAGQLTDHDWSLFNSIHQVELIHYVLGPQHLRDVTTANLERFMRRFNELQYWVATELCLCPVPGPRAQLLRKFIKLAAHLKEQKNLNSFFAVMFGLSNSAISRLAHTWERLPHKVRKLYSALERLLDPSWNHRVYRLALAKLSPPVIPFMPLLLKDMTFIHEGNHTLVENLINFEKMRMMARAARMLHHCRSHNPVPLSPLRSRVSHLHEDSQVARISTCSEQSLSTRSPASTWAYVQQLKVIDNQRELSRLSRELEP

Activity change, negative = inhibition, inactive:
O=C(O)[C@@H](O)[C@H](O)[C@H](O)[C@@H](O)C(=O)O (tested in a mixture with another compound) 3.11%
COc1cc([C@@H]2c3cc4c(cc3[C@@H](O[C@@H]3O[C@@H]5CO[C@@H](C)O[C@H]5[C@H](O)[C@H]3O)[C@H]3COC(=O)[C@H]23)OCO4)cc(OC)c1O 6.44%
COc1ccc2[nH]c(CCc3nc4c(OC)c(OC)ccc4[nH]3)nc2c1OC 13.4%
COc1ncc2nc(-c3ccc(F)cc3)c(=O)n(Cc3cccs3)c2n1 8.55%
N#Cc1ccc(CN2CC3(CCN(C(=O)c4ccncc4)CC3)C2)cc1 14.2%
O=C([C@@H]1CC=C[C@@H]2CCN(C3CC3)C(=O)[C@@H]21)N1CCN(c2ccccc2)CC1 -0.694%
O=S1(=O)CCOC[C@H](CC2CCCCC2)N1Cc1ccccc1 14.7%
NC(=O)C(c1ccccc1)(c1ccccc1)[C@@H]1CCN(CCc2ccc3c(c2)CCO3)C1 13.9%
NC1(C(=O)O)C[C@H](C(=O)O)[C@H](C(=O)O)C1 (stereo not given in full)
Cc1ccc2nc(SCC(=O)N3CCOc4ccc(CN5C[C@@H](C)O[C@@H](C)C5)cc4C3)[nH]c2c1 12.3%
Clc1ccc(/C=C/c2ccc3ccccc3n2)cc1Cl 5.55%
CCCNCC(O)COc1ccccc1C(=O)CCc1ccccc1 (stereo not given)
CCNC(=O)c1sc2ncnc(NCCCN3CCOCC3)c2c1C 6.63%
CC(C)(C)CC(C)(C)c1ccc(OCCO)cc1 -1.44%
CC(=O)OCC(=O)[C@@]1(O)CCC2C3CCC4=CC(=O)CC[C@]4(C)C3C(=O)C[C@]21C (stereo not given in full) -18.3%
CCC1(C2CCN(C(=O)c3ccc(C)c(C)c3)CC2)NC(=O)N(CCc2scnc2C)C1=O (stereo not given) 14.3%
CCOC(=O)c1cccc(N)c1 19.9%
COc1ccc2ccccc2c1CN1CCC2(CCC(CNC(=O)c3ccccc3)O2)CC1 (stereo not given) 5.02%
COc1cccc(CN2CCCC(c3nc(-c4ccncc4)ncc3-c3ccccc3)C2)c1O (stereo not given) -11.2%
COc1ccccc1CN1CC[C@@]2(CCCN(C(C)=O)C2)C1 16.6%
COc1ccccc1CN1CC2(CCN(S(C)(=O)=O)CC2)C1 1.87%
CS(=O)(=O)CCCCN=C=S 13.1%
COCc1c(C(=O)N2CCC(N3CCCCC3)CC2)cnn1-c1ncc(C)c(-c2cccs2)n1 11.4%
COc1cc(=O)n2c(c1C(=O)N(C)Cc1nonc1C)CCN(Cc1cc(C)c(C)cc1C)CC2 10.6%
COc1ccc(C(OCCN2CCC[C@@H](C(=O)O)C2)(c2ccc(OC)cc2)c2ccc(OC)cc2)cc1 0.707%
CCNc1ncc2nc(-c3cn(C)c4ccccc34)c(=O)n(-c3ccc(OC)cc3)c2n1 29%
COCC(=O)Nc1cc(C(=O)N2CCCCC2c2nccn2C)cc2nc(-c3ccccc3)n(C)c12 (stereo not given) 4.22%
N#Cc1cccc(NC(=O)N2CC[C@@]3(CCCN(S(=O)(=O)c4ccccc4)C3)C2)c1 -0.501%
CN1CCN(c2ncnc3ccc(-c4ccccc4Cl)cc23)CC1 12.4%
Clc1ccccc1-c1nc(NCc2cccnc2)c2ccccc2n1 8.59%
FC(F)(F)c1ccccc1-c1nc(N2CCNCC2)c2ccccc2n1 8.42%
N=C(N)c1ccc2cc(OC(=O)c3ccc(N=C(N)N)cc3)ccc2c1
O=C(O)CC/C=C\CC[C@H]1[C@@H](N2CCCCC2)[C@@H](O)C[C@@H]1OCc1ccc(-c2ccccc2)cc1 7.92%
CCCC(NC(C)C(=O)N1C(C(=O)O)CC2CCCCC21)C(=O)OCC (stereo not given) 12.8%
O=C(NCc1cccnc1)c1cnn(-c2ncc3c(n2)-c2ccccc2CCC3)c1C1CC1 17.9%
CCNc1ncc2nc(-c3cc(F)cc(F)c3)c(=O)n(CCc3ccccc3)c2n1 7.98%
CCCCC/C=C\C/C=C\CCCCCCCC(=O)NC(C)c1ccccc1 (stereo not given) 4.35%
COc1ccccc1CNc1cc(-c2cccnc2)ncn1 10%
COc1ccc(CN2CCC(=O)N([C@H](CO)c3ccccc3)CC2)cc1 -2.23%
Cc1nc(C)n(CC(=O)N2CCOc3ccc(CN4CCN(C)C[C@@H]4c4ccccc4)cc3C2)n1 -4.74%
CC(C)NCC(O)c1ccc2ccccc2c1 (stereo not given)
COC(=O)c1c(OCc2ccccn2)cc(=O)n2c1CCN(Cc1cccc(C(F)(F)F)c1)CC2 19.2%
Clc1cccc(C(c2ccc3nc[nH]c3c2)n2ccnc2)c1 (stereo not given) 16.8%
Cc1nc2[nH]c(=O)[nH]c(=O)c2[nH]1 23%
CC1=C[C@H](O)CC(C)(C)[C@H]1/C=C/C(C)=C/C=C/C(C)=C/C=C/C=C(C)/C=C/C=C(C)/C=C/C1=C(C)C[C@@H](O)CC1(C)C 7.87%
CC(=O)O[C@]1(C(C)=O)CC[C@H]2[C@@H]3C[C@H](C)C4=CC(=O)CC[C@]4(C)[C@H]3CC[C@@]21C 12.2%
N[C@@H](Cc1ccccc1)C(=O)O 11.1%
CC1CN(CC(=O)NCC2(N3CCOCC3)CCCC2)Cc2cc(Cl)ccc2O1 (stereo not given) -15.9%
CC(=O)OCC(=O)[C@]1(O)C(OC(C)=O)CC2C3CCC4=CC(=O)C=C[C@@]4(C)[C@]3(F)C(O)C[C@]21C (stereo not given in full) -0.671%
C[C@]12CCC(=O)C=C1CC[C@@H]1C2[C@@H](O)C[C@@]2(C)[C@H]1CC[C@]2(O)C(=O)CO (stereo not given in full) 12.5%
COc1cccc(Cn2c(=O)c(-c3cc(F)cc(F)c3)nc3cnc(N(C)C)nc32)c1 16.7%
CC(=O)Nc1ccccc1-c1nc(CNC(=O)c2cccc(-n3cccn3)c2)c(C)o1 -0.113%
CCCCNC(=O)[C@@H]1Cc2ccccc2N1C(=O)[C@H](N)CC -2.63%
O=C(Cc1ccc[nH]c1=O)c1ccc(F)cc1 18.8%
COCCn1c(=O)c(-c2cc(F)cc(F)c2)nc2cnc(N3CCN(C)CC3)nc21 -0.675%
COc1ccc(-n2c(=O)c(-c3cccs3)nc3cnc(Oc4ccccc4)nc32)cc1 -17.9%
N[C@@H](CCCP(=O)(O)O)C(=O)O 1.53%
C=Cc1ccccc1 14.5%
O=P(O)(O)OC[C@H](O)CO 8.25%
CC(C)[C@H](O)CC[C@@H](C)C1CC[C@H]2C3CC=C4C[C@@H](O)CC[C@]4(C)C3CC[C@]12C (stereo not given in full)
COc1ccccc1-c1cncnc1NCc1cccs1 6.51%
CN(C)c1nc(N(C)C)nc(N(C)C)n1
Cc1ccc(O)cc1
Cc1ccc(-c2ccnc(-n3ncc(C(=O)N(C)CC4CCCN(C)C4)c3C)n2)o1 (stereo not given) 7.34%
c1cnc2[nH]ccc2c1 21.9%
COc1ccc2c(c1)[C@@]1(C)CCC[C@](C)(CO)C1CC2 (stereo not given in full) -3.59%
Cc1nc2cnc(N3CCNCC3)nc2n(-c2ccccc2)c1=O 26.2%
CCOC(=O)[C@@H](C)N(Cc1ccc(OC)cc1)S(=O)(=O)N(Cc1ccccc1)[C@H](C(=O)OC)C(C)C -14.6%
CC(=O)Oc1ccc2c(c1)CCC1C2CC[C@]2(C)C(=O)CCC12 (stereo not given in full) -14.4%
Nc1nc2n[nH]nc2c(=O)[nH]1
O=c1c(-c2cccc(F)c2)nc2cncnc2n1Cc1ccccc1Cl 2.1%
COc1ccc(CNc2nc(-c3ccoc3)nc3ccccc23)c(OC)c1 -29.1%
CS(=O)(=O)Nc1cccc(-c2ccc3ncnc(NCc4cccs4)c3c2)c1 6.86%
Cc1ncc2c(c1CNS(=O)(=O)N(C)C)CCN(C(=O)/C=C/c1ccccc1)C2 8.95%
O=C(NCC1(N2CCOCC2)CCCC1)c1cnn(-c2ncc3c(n2)-c2ccccc2CC3)c1C1CC1 5.27%
C[C@@H]1CN(Cc2ccc3c(c2)CN(Cc2cccc4c2OCO4)CCO3)C[C@H](C)O1 16.7%
c1ccc2cnccc2c1 17%
CCC1CN(CCNC(=O)c2ccsc2)Cc2cc(OC)ccc2O1 (stereo not given) 14.3%
Fc1cccc(/C=N\N=C/c2cccc(F)c2)c1 5.5%
Cc1ccc(CNc2nc(CN3CCNC(=O)C3)nc3ccccc23)o1 17.3%
CCOC(=O)Oc1c(OC)cc(C(=O)O[C@@H]2C[C@@H]3CN4CCc5c([nH]c6cc(OC)ccc56)[C@H]4C[C@@H]3[C@H](C(=O)OC)[C@H]2OC)cc1OC
Cc1noc(C)c1-c1cc(NCc2ccccc2)ncn1 11%
O=C(c1csnn1)N1CCC2(CCCN(c3ccncc3)C2)CC1 0.39%
CC1=CC(=O)C2=C(C)CCC3C(C)C(=O)OC3C12 (stereo not given) 18.1%
CC(C)(C)[C@@H]1CCC(=O)N(CC[C@H](N=[N+]=[N-])c2ccccc2)CC1 -27.2%
COc1ccc(-c2nc3cc(C)ccc3cc2CN(C(=O)c2ccc(C)s2)C2CC2)cc1OC 4.33%
O=C(/C=C/C(=O)Oc1ccccc1C(=O)O)Oc1ccccc1C(=O)O -1.89%
O=S1(=O)CCOC[C@H](c2ccccc2)N1Cc1cccc(F)c1 3.34%
CCOC(=O)N1CCN(Cc2ccc3c(c2)CN(C(=O)c2noc4c2CCCC4)CCO3)CC1 12.6%
c1ccc2c(c1)Sc1ccccc1N2CCN1CCCC1 -3.41%
O=C1OCCN1/N=C/c1ccc([N+](=O)[O-])o1
NC(=O)c1ccc([N+](=O)[O-])cc1Cl 16.5%
COCc1c(C(=O)N2CCN(c3ccccc3)CC2)cnn1-c1nccc(-c2ccco2)n1 7.76%
Cc1cccnc1-c1cccc2c1OC(CNC(=O)Cc1c(C)noc1C)C2 (stereo not given) 27.1%
CCOC(=O)[C@H](CCc1ccccc1)N[C@H]1CS[C@H](c2cccs2)CN(CC(=O)O)C1=O -4.47%
CCCCC[C@H]1CN(Cc2ccccc2)C(=O)[C@@H]1CC(=O)NCc1ccc(OC)cc1 -11%
O=C1NC(=O)/C(=C/c2ccc3nccnc3c2)S1 21% [at 75.8 µM]
CN1CCCN(C(=O)[C@@H]2C[C@@H](Sc3nc4ccccc4[nH]3)CN2Cc2ccc(-c3ccccc3)cc2)CC1 19.3%
NC(N)=NN=C(/C=C/c1ccc([N+](=O)[O-])o1)/C=C/c1ccc([N+](=O)[O-])o1 -6.1%
CCC1CN(Cc2cn[nH]c2-c2ccc(OC)cc2)Cc2cc(OC)ccc2O1 (stereo not given) -10.2%
